In patent publication US5510332A, “Process to inhibit binding of the integrin α4 62 1 to VCAM-1 or fibronectin and linear peptides therefor” (priority 1994, dated 1996):
At least one peptide structure holds a part that was inferred or is arguable (an end, a ring closure or a residue). Where a SMILES comes first, the peptide text is derived from it. Where no end group is shown, it is not given here.

These compounds were tested against T1, binding of α4 β1 integrin to VCAM-1 (Homo sapiens, UniProt P05556+P13612) (assay: Cell-protein assay: calcein-labelled Ramos cells binding to VCAM-mouse IgG fusion protein on magnetic beads). Details: less than about 100; assay format not stated.
T1 construct: endogenous in cells; host or cells: Ramos (human B-cell line) for endogenous α4β1; the VCAM-mouse IgG fusion was made in house, secreted from transfected COS cells and captured on goat anti-mouse IgG Dynal beads
Format: cell-based
Excerpt: The VCAM-1 binding assays involved assessing the ability of cells that express α4 β1 to bind cells expressing VCAM (cell-cell assay) or to bind purified VCAM protein (cell-protein assay). The integrin-expressing cell types used in these assays included the human B-cell line, Ramos, and the human promyelocytic line, HL-60. The cell-cell assay was used to compare the relative potency of peptides at a single dose. The cell-protein assay was used to generate dose response curves and determine IC50 values.
An expression vector was designed such that a region of VCAM known to bind the integrin was-expressed as a fusion protein with mouse IgG. A cDNA containing the two N-terminal domains of human VCAM was generated by the polymerase chain reaction (PCR) from a full length VCAM cDNA. Similarly, a cDNA containing the hinge, CH2 and CH3 regions of mouse IgG2A was amplified by PCR from cDNA made from total RNA isolated from the hybridoma cell line 402C10. […]
Ramos cells were fluorescently labeled with calcein AM (Molecular Probes) and resuspended in 1 ml of binding buffer (Hanks' balanced salt solution, pH 7.4, 1.0 mM CaCl2, 1.0 mM MgCl2 and 1.0 mM MnCl2). […] The remaining bound cells were lysed in 50 mM Tris, pH 7.4, 5.0 mM EDTA, 1.0% NP-40 and quantitated by fluorimetry using a Millipore Cytofluor 2350 fluorimeter. Dose response curves were calculated and IC50 values determined. […]

T1 sequence (P13612 34-1032): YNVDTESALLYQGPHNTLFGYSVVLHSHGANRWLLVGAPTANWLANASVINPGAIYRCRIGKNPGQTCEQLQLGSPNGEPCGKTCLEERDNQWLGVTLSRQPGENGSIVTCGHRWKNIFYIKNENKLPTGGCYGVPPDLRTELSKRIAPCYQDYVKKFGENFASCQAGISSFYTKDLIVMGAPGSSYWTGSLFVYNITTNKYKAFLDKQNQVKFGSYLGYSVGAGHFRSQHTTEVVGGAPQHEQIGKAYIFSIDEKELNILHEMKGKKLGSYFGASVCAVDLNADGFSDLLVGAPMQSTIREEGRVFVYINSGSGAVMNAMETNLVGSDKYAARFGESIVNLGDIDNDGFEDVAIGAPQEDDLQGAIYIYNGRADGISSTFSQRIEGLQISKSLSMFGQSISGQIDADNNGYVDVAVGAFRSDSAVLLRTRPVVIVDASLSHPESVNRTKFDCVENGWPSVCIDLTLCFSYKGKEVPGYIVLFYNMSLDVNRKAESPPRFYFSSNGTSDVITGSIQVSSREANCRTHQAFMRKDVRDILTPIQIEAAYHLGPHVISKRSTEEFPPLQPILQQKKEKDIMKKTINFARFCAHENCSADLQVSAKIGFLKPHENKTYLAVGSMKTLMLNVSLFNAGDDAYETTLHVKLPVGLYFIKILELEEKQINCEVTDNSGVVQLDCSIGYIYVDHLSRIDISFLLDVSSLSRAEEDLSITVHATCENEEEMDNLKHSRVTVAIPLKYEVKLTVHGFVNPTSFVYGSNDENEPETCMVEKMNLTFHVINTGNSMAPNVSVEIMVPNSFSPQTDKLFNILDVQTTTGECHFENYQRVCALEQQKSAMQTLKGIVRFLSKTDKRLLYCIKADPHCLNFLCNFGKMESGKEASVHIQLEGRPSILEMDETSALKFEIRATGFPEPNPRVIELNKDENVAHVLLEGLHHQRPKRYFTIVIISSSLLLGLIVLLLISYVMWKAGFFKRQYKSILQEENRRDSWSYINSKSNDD
T1 sequence (P05556 21-798): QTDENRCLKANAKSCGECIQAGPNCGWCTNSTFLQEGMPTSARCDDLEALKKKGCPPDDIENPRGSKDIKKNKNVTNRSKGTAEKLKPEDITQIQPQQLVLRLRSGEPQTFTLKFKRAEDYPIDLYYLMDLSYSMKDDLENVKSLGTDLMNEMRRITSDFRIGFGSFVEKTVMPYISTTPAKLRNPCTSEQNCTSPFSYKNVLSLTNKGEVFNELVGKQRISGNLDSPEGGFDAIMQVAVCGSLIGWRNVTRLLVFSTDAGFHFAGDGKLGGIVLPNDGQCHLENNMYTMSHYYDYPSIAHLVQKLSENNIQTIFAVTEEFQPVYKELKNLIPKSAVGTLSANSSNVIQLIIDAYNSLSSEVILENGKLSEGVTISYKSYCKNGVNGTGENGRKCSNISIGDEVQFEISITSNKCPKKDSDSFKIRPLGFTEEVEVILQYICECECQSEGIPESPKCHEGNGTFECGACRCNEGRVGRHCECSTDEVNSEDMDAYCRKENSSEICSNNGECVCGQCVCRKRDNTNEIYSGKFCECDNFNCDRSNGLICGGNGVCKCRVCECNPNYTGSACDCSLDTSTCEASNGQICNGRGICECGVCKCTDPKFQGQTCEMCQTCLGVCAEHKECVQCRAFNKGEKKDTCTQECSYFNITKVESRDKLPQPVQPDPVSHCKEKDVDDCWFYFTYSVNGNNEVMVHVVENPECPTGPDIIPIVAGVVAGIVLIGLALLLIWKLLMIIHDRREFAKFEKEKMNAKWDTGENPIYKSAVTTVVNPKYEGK

With `CC(C)C[C@H](NC(=O)[C@@H](N)Cc1c[nH]c2ccccc12)C(=O)N[C@@H](CC(=O)O)C(=O)N[C@H](C(N)=O)C(C)C` [SEQ ID NO:28, Trp-Leu-Asp-Val-amide] (H-WLDV-NH2) the “peptide concentration at which binding of α4 β1 to VCAM-1 is significantly inhibited” value was “less than 100 μM”.
In the case of “GPEWLD-NH2 [SEQ ID NO:45, Gly-Pro-Glu-Trp-Leu-Asp-amide]”, the “peptide concentration at which binding of α4 β1 to VCAM-1 is significantly inhibited” value is reported as “less than 100 μM”.

These compounds were tested against T2, binding of the integrin α4 β1 to VCAM (Homo sapiens, UniProt P05556+P13612) (assay: Cell-cell assay: 35S-labelled Ramos cells binding to VCAM expressing CHO cells). Details: single concentration at which SEQ ID NO:9 gives approximately 50% inhibition of adhesion; SEQ ID NO:9 = 1.00; >2.00 indicates little or no inhibition of VCAM-α4 β1 binding.
T2 construct: endogenous in cells; host or cells: Ramos (human B-cell line) for endogenous α4β1; CHO cells stably transfected with human VCAM cDNA for the counter-receptor
Format: cell-based
Excerpt: The VCAM-1 binding assays involved assessing the ability of cells that express α4 β1 to bind cells expressing VCAM (cell-cell assay) or to bind purified VCAM protein (cell-protein assay). The integrin-expressing cell types used in these assays included the human B-cell line, Ramos, and the human promyelocytic line, HL-60. The cell-cell assay was used to compare the relative potency of peptides at a single dose. The cell-protein assay was used to generate dose response curves and determine IC50 values. A human VCAM cDNA was amplified by the polymerase chain reaction (PCR) from cDNA reverse transcribed from RNA isolated from human umbilical vein endothelial cells. The VCAM cDNA was ligated into a mammalian expression vector and electroporated into chinese hamster ovary (CHO) cells. Cells were grown in G418 selective media and clones expressing high levels of VCAM were selected by FACS analysis. VCAM expressing CHO cells and nontransfected CHO cells were plated in 48 well cluster dishes at a density of 50,000 cells/well 24 hour prior to assay. The dishes were washed with binding buffer (DMEM, 1% BSA, 1.0 mM MnCl2, 0.02% sodium azide, pH 7.4) immediately prior to assay. […] Unbound cells were removed by washing with binding buffer and the remaining bound cells were lysed with 50 mM Tris, pH 8.0, 150 mM NaCl, 1% SDS and transferred to scintillation vials for quantitation.

T2 sequence (P13612 34-1032): as the sequence (P13612 34-1032) above
T2 sequence (P05556 21-798): as the sequence (P05556 21-798) above

Point of comparison: GPEWQDVP-NH2 [SEQ ID NO:9 L→Q], “relative quantity of adhered cells in relationship to peptide SEQ ID NO:9” value 2.44. Against it:
- GPEELDVP-NH2 [SEQ ID NO:9 W→E] — lower, 1.66
- GPEFLDVP-NH2 [SEQ ID NO:9 W→F, Gly-Pro-Glu-Phe-Leu-Asp-Val-Pro-amide] — lower, 0.83
- GPEHLDVP-NH2 [SEQ ID NO:9 W→H, Gly-Pro-Glu-His-Leu-Asp-Val-Pro-amide] — lower, 1.68
- GPEILDVP-NH2 [SEQ ID NO:9 W→I] — lower, 1.51
- GPEKLDVP-NH2 [SEQ ID NO:9 W→K, Gly-Pro-Glu-Lys-Leu-Asp-Val-Pro-amide] — lower, 1.65
- GPELLDVP-NH2 [SEQ ID NO:9 W→L, Gly-Pro-Glu-Leu-Leu-Asp-Val-Pro-amide] — lower, 1.74
- GPEMLDVP-NH2 [SEQ ID NO:9 W→M, Gly-Pro-Glu-Met-Leu-Asp-Val-Pro-amide] — lower, 1.54
- GPENLDVP-NH2 [SEQ ID NO:9 W→N, Gly-Pro-Glu-Asn-Leu-Asp-Val-Pro-amide] — lower, 1.70
- GPEPLDVP-NH2 [SEQ ID NO:9 W→P, Gly-Pro-Glu-Pro-Leu-Asp-Val-Pro-amide] — lower, 1.12
- GPEQLDVP-NH2 [SEQ ID NO:9 W→Q, Gly-Pro-Glu-Gln-Leu-Asp-Val-Pro-amide] — lower, 1.81
- GPERLDVP-NH2 [SEQ ID NO:9 W→R] — lower, 1.20
- GPESLDVP-NH2 [SEQ ID NO:9 W→S, Gly-Pro-Glu-Ser-Leu-Asp-Val-Pro-amide] — lower, 1.76
- GPETLDVP-NH2 [SEQ ID NO:9 W→T, Gly-Pro-Glu-Thr-Leu-Asp-Val-Pro-amide] — lower, 1.47
- GPEVLDVP-NH2 [SEQ ID NO:9 W→V, Gly-Pro-Glu-Val-Leu-Asp-Val-Pro-amide] — lower, 1.53
- GPEWADVP-NH2 [SEQ ID NO:9 L→A] — lower, 1.90
- GPEWCDVP-NH2 [SEQ ID NO:9 L→C] — lower, 1.69
- GPEWDDVP-NH2 [SEQ ID NO:9 L→D] — lower, 2.17
- GPEWEDVP-NH2 [SEQ ID NO:9 L→E] — lower, 2.07
- GPEWFDVP-NH2 [SEQ ID NO:9 L→F] — lower, 2.33
- GPEWGDVP-NH2 [SEQ ID NO:9 L→G] — lower, 1.89
- GPEWHDVP-NH2 [SEQ ID NO:9 L→H] — lower, 1.64
- GPEWIDVP-NH2 [SEQ ID NO:9 L→I] — lower, 2.26
- GPEWKDVP-NH2 [SEQ ID NO:9 L→K, Gly-Pro-Glu-Trp-Lys-Asp-Val-Pro-amide] — lower, 1.12
- GPEWLAVP-NH2 [SEQ ID NO:9 D→A] — lower, 2.42
- GPEWLDAP-NH2 [SEQ ID NO:9 V→A, Gly-Pro-Glu-Trp-Leu-Asp-Ala-Pro-amide] — lower, 1.88
- GPEWLDCP-NH2 [SEQ ID NO:9 V→C, Gly-Pro-Glu-Trp-Leu-Asp-Cys-Pro-amide] — lower, 1.46
- GPEWLDTP-NH2 [SEQ ID NO:9 V→T] — lower, 1.32
- GPEWLGVP-NH2 [SEQ ID NO:9 D→G] — lower, 1.84
- GPEWLIVP-NH2 [SEQ ID NO:9 D→I] — higher, 2.55
- GPEWLLVP-NH2 [SEQ ID NO:9 D→L] — lower, 2.01
- GPEWLNVP-NH2 [SEQ ID NO:9 D→N] — lower, 2.38
- GPEWLSVP-NH2 [SEQ ID NO:9 D→S] — lower, 2.14
- GPEWLTVP-NH2 [SEQ ID NO:9 D→T] — lower, 2.23
- GPEWLVVP-NH2 [SEQ ID NO:9 D→V] — lower, 2.14
- GPEWLWVP-NH2 [SEQ ID NO:9 D→W] — higher, 2.58
- GPEWLYVP-NH2 [SEQ ID NO:9 D→Y] — lower, 1.28
- GPEWMDVP-NH2 [SEQ ID NO:9 L→M] — lower, 1.14
- GPEWNDVP-NH2 [SEQ ID NO:9 L→N] — lower, 1.59
- GPEWPDVP-NH2 [SEQ ID NO:9 L→P] — lower, 1.77
- GPEWRDVP-NH2 [SEQ ID NO:9 L→R] — lower, 2.33
- GPEWSDVP-NH2 [SEQ ID NO:9 L→S] — lower, 2.33
- GPEWTDVP-NH2 [SEQ ID NO:9 L→T] — lower, 1.90
- GPEWVDVP-NH2 [SEQ ID NO:9 L→V] — lower, 2.14
- GPEWWDVP-NH2 [SEQ ID NO:9 L→W] — lower, 1.32
- GPEWYDVP-NH2 [SEQ ID NO:9 L→Y] — lower, 1.89
- GPEYLDVP-NH2 [SEQ ID NO:9 W→Y] — lower, 1.83
